{"source": "paper PMC9911399", "about": "“Two distinct binding modes provide the RNA-binding protein RbFox with extraordinary sequence specificity”", "binders": {"B1": {"name": "UGACGAC (DNA:RNA)", "RNA": "GGGAGACCGGAAUUCAGAUUGUCCUGACGACUUAAAUCCCGUCGUAGCCACCA", "DNA 1": "CAATCTGAATTCCGGTCTCCC", "DNA 2": "TGGTGGCTACGACGGGATT"}, "B2": {"name": "GUGCCUG (DNA:RNA)", "RNA": "B1 RNA with U25G, G26U, A27G, G29C, A30U, C31G", "DNA 1": "CAATCTGAATTCCGGTCTCCC", "DNA 2": "TGGTGGCTACGACGGGATT"}, "B3": {"name": "CCGUGCG (DNA:RNA)", "RNA": "B1 RNA with U25C, G26C, A27G, C28U, A30C, C31G", "DNA 1": "CAATCTGAATTCCGGTCTCCC", "DNA 2": "TGGTGGCTACGACGGGATT"}, "B4": {"name": "UCUACUG (DNA:RNA)", "RNA": "B1 RNA with G26C, A27U, C28A, G29C, A30U, C31G", "DNA 1": "CAATCTGAATTCCGGTCTCCC", "DNA 2": "TGGTGGCTACGACGGGATT"}, "B5": {"name": "GACUAGC (DNA:RNA)", "RNA": "B1 RNA with U25G, G26A, A27C, C28U, G29A, A30G", "DNA 1": "CAATCTGAATTCCGGTCTCCC", "DNA 2": "TGGTGGCTACGACGGGATT"}, "B6": {"name": "GAUUUUA (DNA:RNA)", "RNA": "GGGAGACCGGAAUUCAGAUUGUCCGAUUUUAUUAAAUCCCGUCGUAGCCACCA", "DNA 1": "CAATCTGAATTCCGGTCTCCC", "DNA 2": "TGGTGGCTACGACGGGATT"}, "B7": {"name": "ACCGUGA (DNA:RNA)", "RNA": "B6 RNA with G25A, A26C, U27C, U28G, U30G", "DNA 1": "CAATCTGAATTCCGGTCTCCC", "DNA 2": "TGGTGGCTACGACGGGATT"}, "B8": {"name": "UGGUAGU (DNA:RNA)", "RNA": "B1 RNA with A27G, C28U, G29A, A30G, C31U", "DNA 1": "CAATCTGAATTCCGGTCTCCC", "DNA 2": "TGGTGGCTACGACGGGATT"}, "B9": {"name": "AUAGCCA (DNA:RNA)", "RNA": "B6 RNA with G25A, A26U, U27A, U28G, U29C, U30C", "DNA 1": "CAATCTGAATTCCGGTCTCCC", "DNA 2": "TGGTGGCTACGACGGGATT"}, "B10": {"name": "UCAUACC (DNA:RNA)", "RNA": "B1 RNA with G26C, C28U, G29A, A30C", "DNA 1": "CAATCTGAATTCCGGTCTCCC", "DNA 2": "TGGTGGCTACGACGGGATT"}, "B11": {"name": "CAAACGU (DNA:RNA)", "RNA": "B6 RNA with G25C, U27A, U28A, U29C, U30G, A31U", "DNA 1": "CAATCTGAATTCCGGTCTCCC", "DNA 2": "TGGTGGCTACGACGGGATT"}, "B12": {"name": "AUGACUU (DNA:RNA)", "RNA": "B6 RNA with G25A, A26U, U27G, U28A, U29C, A31U", "DNA 1": "CAATCTGAATTCCGGTCTCCC", "DNA 2": "TGGTGGCTACGACGGGATT"}, "B13": {"name": "GGCUAUU (DNA:RNA)", "RNA": "B6 RNA with A26G, U27C, U29A, A31U", "DNA 1": "CAATCTGAATTCCGGTCTCCC", "DNA 2": "TGGTGGCTACGACGGGATT"}, "B14": {"name": "UUGCCCU (DNA:RNA)", "RNA": "B1 RNA with G26U, A27G, G29C, A30C, C31U", "DNA 1": "CAATCTGAATTCCGGTCTCCC", "DNA 2": "TGGTGGCTACGACGGGATT"}, "B15": {"name": "CAUUUGG (DNA:RNA)", "RNA": "B6 RNA with G25C, U30G, A31G", "DNA 1": "CAATCTGAATTCCGGTCTCCC", "DNA 2": "TGGTGGCTACGACGGGATT"}, "B16": {"name": "UUUGAGA (DNA:RNA)", "RNA": "B6 RNA with G25U, A26U, U28G, U29A, U30G", "DNA 1": "CAATCTGAATTCCGGTCTCCC", "DNA 2": "TGGTGGCTACGACGGGATT"}, "B17": {"name": "AGUUCUG (DNA:RNA)", "RNA": "B6 RNA with G25A, A26G, U29C, A31G", "DNA 1": "CAATCTGAATTCCGGTCTCCC", "DNA 2": "TGGTGGCTACGACGGGATT"}, "B18": {"name": "GCGAGUU (DNA:RNA)", "RNA": "B6 RNA with A26C, U27G, U28A, U29G, A31U", "DNA 1": "CAATCTGAATTCCGGTCTCCC", "DNA 2": "TGGTGGCTACGACGGGATT"}, "B19": {"name": "UUAUGUU (DNA:RNA)", "RNA": "B1 RNA with G26U, C28U, A30U, C31U", "DNA 1": "CAATCTGAATTCCGGTCTCCC", "DNA 2": "TGGTGGCTACGACGGGATT"}, "B20": {"name": "AGUUUAU (DNA:RNA)", "RNA": "B6 RNA with G25A, A26G, U30A, A31U", "DNA 1": "CAATCTGAATTCCGGTCTCCC", "DNA 2": "TGGTGGCTACGACGGGATT"}, "B21": {"name": "ACCGCUU (DNA:RNA)", "RNA": "B6 RNA with G25A, A26C, U27C, U28G, U29C, A31U", "DNA 1": "CAATCTGAATTCCGGTCTCCC", "DNA 2": "TGGTGGCTACGACGGGATT"}, "B22": {"name": "GGGAUCG (DNA:RNA)", "RNA": "B6 RNA with A26G, U27G, U28A, U30C, A31G", "DNA 1": "CAATCTGAATTCCGGTCTCCC", "DNA 2": "TGGTGGCTACGACGGGATT"}, "B23": {"name": "AUUGUGG (DNA:RNA)", "RNA": "B6 RNA with G25A, A26U, U28G, U30G, A31G", "DNA 1": "CAATCTGAATTCCGGTCTCCC", "DNA 2": "TGGTGGCTACGACGGGATT"}, "B24": {"name": "GAUGUAA (DNA:RNA)", "RNA": "B6 RNA with U28G, U30A", "DNA 1": "CAATCTGAATTCCGGTCTCCC", "DNA 2": "TGGTGGCTACGACGGGATT"}, "B25": {"name": "CAUUCUA (DNA:RNA)", "RNA": "B6 RNA with G25C, U29C", "DNA 1": "CAATCTGAATTCCGGTCTCCC", "DNA 2": "TGGTGGCTACGACGGGATT"}, "B26": {"name": "UAAUUUU (DNA:RNA)", "RNA": "B6 RNA with G25U, U27A, A31U", "DNA 1": "CAATCTGAATTCCGGTCTCCC", "DNA 2": "TGGTGGCTACGACGGGATT"}, "B27": {"name": "CCAGACA (DNA:RNA)", "RNA": "B6 RNA with G25C, A26C, U27A, U28G, U29A, U30C", "DNA 1": "CAATCTGAATTCCGGTCTCCC", "DNA 2": "TGGTGGCTACGACGGGATT"}, "B28": {"name": "GCUUGUG (DNA:RNA)", "RNA": "B6 RNA with A26C, U29G, A31G", "DNA 1": "CAATCTGAATTCCGGTCTCCC", "DNA 2": "TGGTGGCTACGACGGGATT"}, "B29": {"name": "CCUGCGA (DNA:RNA)", "RNA": "B6 RNA with G25C, A26C, U28G, U29C, U30G", "DNA 1": "CAATCTGAATTCCGGTCTCCC", "DNA 2": "TGGTGGCTACGACGGGATT"}, "B30": {"name": "AACCAAC (DNA:RNA)", "RNA": "B1 RNA with U25A, G26A, A27C, G29A", "DNA 1": "CAATCTGAATTCCGGTCTCCC", "DNA 2": "TGGTGGCTACGACGGGATT"}, "B31": {"name": "GUUAUCU (DNA:RNA)", "RNA": "B6 RNA with A26U, U28A, U30C, A31U", "DNA 1": "CAATCTGAATTCCGGTCTCCC", "DNA 2": "TGGTGGCTACGACGGGATT"}}, "note": "Changes are numbered by the printed parent chain; changes in the protein carry UniProt numbers. Some of the results follow.", "data": [{"molecular_target": "T1, RBFOX1 RRM (Homo sapiens, UniProt Q9NWB1 109-208)", "T1 sequence": "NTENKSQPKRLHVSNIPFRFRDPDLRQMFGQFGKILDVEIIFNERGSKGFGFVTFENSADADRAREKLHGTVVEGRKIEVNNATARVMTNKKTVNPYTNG", "assay": "EMSA; HiTS-Eq, 1 nM pool, 10 min; buffer printed only for the single-RNA assays: 10 mM Tris pH 7.5, 150 mM NaCl, 3.4 mM EDTA, 0.001% NP-40, 30 C", "conditions": "tags: His6 N-terminal (pET28a); label: 5' 32P", "method_in_brief": "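Purified wild-type or mutant RbFox RRM at increasing concentrations was equilibrated with 1 nM of 5′-radiolabelled RNA carrying 7 randomized nucleotides for 10 min in 50 µL. Unbound RNA was separated by 8% native PAGE and sequenced. Relative association constants came from read-count changes of each RNA species compared with the control reaction, normalised to the cognate motif.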", "values": [{"binder": "B1", "binding signal": "0.0138 KA relative to UGCAUGU"}, {"binder": "B2", "binding signal": "0.0397 KA relative to UGCAUGU"}, {"binder": "B3", "binding signal": "0.0124 KA relative to UGCAUGU"}, {"binder": "B4", "binding signal": "0.0124 KA relative to UGCAUGU"}, {"binder": "B5", "binding signal": "0.01 KA relative to UGCAUGU"}, {"binder": "B6", "binding signal": "0.00768 KA relative to UGCAUGU"}, {"binder": "B7", "binding signal": "0.0086 KA relative to UGCAUGU"}, {"binder": "B8", "binding signal": "0.0145 KA relative to UGCAUGU"}, {"binder": "B9", "binding signal": "0.000219 KA relative to UGCAUGU"}, {"binder": "B10", "binding signal": "0.00159 KA relative to UGCAUGU"}, {"binder": "B11", "binding signal": "0.00161 KA relative to UGCAUGU"}, {"binder": "B12", "binding signal": "0.00518 KA relative to UGCAUGU"}, {"binder": "B13", "binding signal": "0.00578 KA relative to UGCAUGU"}, {"binder": "B14", "binding signal": "0.0134 KA relative to UGCAUGU"}, {"binder": "B15", "binding signal": "0.014 KA relative to UGCAUGU"}, {"binder": "B16", "binding signal": "0.0149 KA relative to UGCAUGU"}, {"binder": "B17", "binding signal": "0.0155 KA relative to UGCAUGU"}, {"binder": "B18", "binding signal": "0.0199 KA relative to UGCAUGU"}, {"binder": "B19", "binding signal": "0.0135 KA relative to UGCAUGU"}, {"binder": "B20", "binding signal": "0.00376 KA relative to UGCAUGU"}, {"binder": "B21", "binding signal": "0.0029 KA relative to UGCAUGU"}, {"binder": "B22", "binding signal": "0.0449 KA relative to UGCAUGU"}, {"binder": "B23", "binding signal": "0.00992 KA relative to UGCAUGU"}, {"binder": "B24", "binding signal": "0.0112 KA relative to UGCAUGU"}, {"binder": "B25", "binding signal": "0.00209 KA relative to UGCAUGU"}, {"binder": "B26", "binding signal": "0.0151 KA relative to UGCAUGU"}, {"binder": "B27", "binding signal": "0.00629 KA relative to UGCAUGU"}, {"binder": "B28", "binding signal": "0.0418 KA relative to UGCAUGU"}, {"binder": "B29", "binding signal": "0.0128 KA relative to UGCAUGU"}, {"binder": "B30", "binding signal": "0.000641 KA relative to UGCAUGU"}, {"binder": "B31", "binding signal": "0.0141 KA relative to UGCAUGU"}]}]}
